Source: PubChem BioAssay AID686970 (National Center for Advancing Translational Sciences (NCATS), 2013)
About 6,000 (1.7%) of roughly 360,000 compounds were called active. Inconclusive means that the source gave no clear call. Such entries were picked first, then a sample of the others. Calls follow the shape of the dose curve; as a rule, active = well fitted cell-killing curve with a large enough effect; inconclusive = small, poorly fitted or top-dose-only effect, or effect the other way; inactive = flat fitted curve, though single readings scatter. Potencies of inconclusive entries are left out as doubtful fits.
Potency is read from the fitted curve at half-maximal effect; tags tell the direction and shape of the fitted curve.

Assay: qHTS for induction of synthetic lethality in tumor cells producing 2HG: qHTS for the HT-1080-NT fibrosarcoma cell line;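 also: NT is the 2HG producing partner of a matched IDH1 knockdown line; nearly all actives have a fitted effect of over 55% in size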;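 as to activity, negative = less viability: 0% = DMSO-treated cells and -100% = media-only wells without cells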
Details: HT-1080-NT fibrosarcoma viability, CellTiter-Glo ATP luminescence, 48 h; activity, negative = less viability: at 46.1 µM (top of the series) unless noted
How it was run: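 Fibrosarcoma NT cells, 750 per well in 5% FBS RPMI, were exposed to compound for 48 hours. Viability: CellTiter-Glo luminescence.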
For `Cc1ccc(S(=O)(=O)n2cccc2/C=C/[N+](=O)[O-])cc1`, the Potency was inconclusive [cytotoxic, single point]. For `CN1C[C@@H]2[C@@H]3C(=O)N(Cc4ccccc4)C(=O)[C@@H]3[C@](Cc3ccccc3)(C1=O)N2C(=O)c1ccccc1`, the Potency was “inactive”. In the case of `Cc1ccccc1-c1nc(CN2CCC(C(=O)NC3CCCCC3)CC2)c(C)o1`, the Potency is reported as “inactive”. For `Cc1nn(-c2ccc(F)cc2)c2nc(N)c(C#N)c(-c3ccc(O)c(O)c3)c12`, the Potency was inconclusive [cytotoxic, partial curve]. In the case of `CCCn1c(NC(=O)c2cccc(C)c2C)nc2ccccc21`, the Potency is reported as inconclusive [cytotoxic, single point]. With `O=C(Nc1nc2ccccc2[nH]1)c1ccc(OC(F)F)cc1` the Potency was inconclusive [cytotoxic, single point]. For `CC(=O)/C(C#N)=C1\NC(=O)C(Cc2cc(Cl)ccc2Cl)S1` (stereo not drawn), the Potency was active: 23.1 µM. For `O=C(Oc1cc(=O)oc2ccccc12)c1ccccc1`, the Potency was active: 16.4 µM. For `COc1ccc([C@H]2[C@H](C(=O)C(C)(C)C)N3N=Cc4ccccc4C3[C@]23N=C(c2ccccc2)OC3=O)cc1OC` (stereo partly drawn), the Potency was “inactive”. In the case of `NS(=O)(=O)c1ccc(NC(=S)NC(=O)c2ccc(-c3ccccc3)cc2)cc1`, the Potency is reported as inconclusive [cytotoxic, single point]. For `CC(N)c1csc(NC(=O)c2cc(C(C)(C)C)nn2Cc2ccccc2)n1` (stereo not drawn), the Potency was active: 18.4 µM. With `COc1cc(/C=C2\SC(=S)N(NC(=O)c3ccccc3O)C2=O)ccc1O` the Potency was inconclusive [cytotoxic, single point]. With `CCOC(=O)c1cc2sccc2n1Cc1ccc(C#N)cc1` the Potency was inconclusive [cytotoxic, single point]. With `COc1ccccc1/C=N/Nc1cc(N(C)C)nc(N(C)C)n1` the Potency was inconclusive [cytotoxic, partial curve]. For `Cc1ccc(-n2c(SCC3CCCCO3)nnc2-c2ccco2)cc1` (stereo not drawn), the Potency was “inactive”. In the case of `c1ccc2c(c1)oc1c(NCCN3CCOCC3)ncnc12`, the Potency is reported as “inactive”. With `CC1(C)Cc2c(sc3c2c(=N)n(Cc2ccco2)c(=O)n3Cc2ccc(F)cc2)CO1` the Potency was inconclusive [cytotoxic, partial curve]. With `O=c1sc(N2CCN(c3ccc(F)cc3)CC2)nc2ccsc12` the Potency was inconclusive [rising, single point]. For `CCOC(=O)c1cccc(N2C(N)=NC(N)=NC2(C)C)c1`, the Potency was inconclusive [cytotoxic, single point]. With `CC(C)(C)c1ccc(C(=O)Nc2ccc(N3CCOCC3)cc2)cc1` the Potency was inconclusive [cytotoxic, partial curve]. For `O=C(CCCN1C(=O)/C(=C/c2cccc(Br)c2)SC1=S)NCCCN1CCOCC1`, the Potency was inconclusive [cytotoxic, partial curve]. In the case of `O=C1NC[C@H](CC2CCCCC2)N(CCc2cc(C(F)(F)F)cc(C(F)(F)F)c2)C1=O`, the Potency is reported as inconclusive [cytotoxic, partial curve]. For `CC(=O)N1CCN(C(=O)COC(=O)c2ccc(S(C)(=O)=O)cc2)CC1`, the activity, negative = less viability was inconclusive: 14.9% [cytotoxic]. With `CCOC(=O)[C@]12CCCC=C1N(Cc1ccc(Cl)cc1Cl)C(=O)[C@H](CC(=O)N1CCOCC1)C2` the Potency was “inactive”. For `Cc1cc(Cl)ccc1NC(=S)NCCC(c1ccccc1)c1ccccc1`, the Potency was inconclusive [cytotoxic, single point]. In the case of `COc1ccc(OC)c(N(CC(=O)Nc2cccnc2)S(=O)(=O)c2ccc(C)cc2)c1`, the Potency is reported as inconclusive [cytotoxic, single point]. In the case of `O=C(C(=O)N1CCCN(Cc2ccc(F)cc2)CC1)c1ccccc1`, the Potency is reported as “inactive”. With `COC(=O)c1[nH]c2c(c1C)C(=O)CC(c1cc(OC)ccc1OC)C2` (stereo not drawn) the Potency was inconclusive [cytotoxic, partial curve, poor fit]. For `CCOc1cc2c(cc1O)C(=NO)CC1C2CCC2(C)C(O)CCC12` (stereo not drawn), the Potency was active: 0.291 µM. In the case of `N#CC(OC(=O)c1ccccc1)c1cccc([N+](=O)[O-])c1` (stereo not drawn), the Potency is reported as “inactive”. In the case of `Oc1ccc(/C=C/c2cc(O)cc(O)c2)cc1`, the Potency is reported as inconclusive [cytotoxic, single point]. For `CC(C)(C)c1ccc(Cn2c(=N)n(CC(O)c3ccco3)c3ccccc32)cc1` (stereo not drawn), the Potency was active: 23.1 µM. In the case of `Cc1cccc2cc(CN(Cc3cccs3)C(=S)NCC3CCCO3)c(=O)[nH]c12` (stereo not drawn), the Potency is reported as “inactive”. For `Cc1ccc2nc(NC(=O)CN(C)S(=O)(=O)c3cccc4nsnc34)sc2c1`, the Potency was inconclusive [cytotoxic, partial curve]. With `Brc1ccc(-c2ccc(/C=N/Nc3nc4ccccc4[nH]3)o2)cc1` the Potency was inconclusive [cytotoxic, single point]. For `Cc1cc(C)nc(NS(=O)(=O)c2ccc(NC(=O)c3cccc(N4C(=O)CCC4=O)c3)cc2)n1`, the Potency was active: 23.1 µM. With `Cc1sc(-c2cccnc2)nc1OC(=O)C1CC1` the Potency was inconclusive [rising, partial curve]. For `Cc1ccc2[nH]c3c(N4CCN(Cc5ccccc5)CC4)ncnc3c2c1`, the Potency was inconclusive [cytotoxic, single point]. In the case of `Cc1ccc(NS(=O)(=O)c2ccc3c(c2)c(=O)n(C)c(=O)n3C)cc1F`, the Potency is reported as active: 16.4 µM. With `CCN(c1ccccc1)S(=O)(=O)c1ccc(C(=O)Oc2ccc(C(C)=O)cc2)cc1` the Potency was “inactive”. In the case of `CCOC(=O)c1c(C)[nH]c(C)c1C(=O)COC(=O)/C=C/c1ccc(OC)cc1`, the Potency is reported as inconclusive [cytotoxic, partial curve]. In the case of `Cc1cc(C)n2c(SCC(=O)Nc3ccc(F)cc3)nnc2n1`, the Potency is reported as “inactive”. In the case of `CC#CC[N+](C)(C)CCCCCCCCCCCC`, the Potency is reported as active: 23.1 µM. With `CCOC(=O)c1c(NC(=O)C2=C(C)NC(=S)NC2c2ccc(F)cc2)sc(C)c1C` (stereo not drawn) the Potency was inconclusive [cytotoxic, partial curve]. In the case of `CN(CC(=O)Nc1ccccc1Br)C(=O)c1cccnc1Nc1cccc(C(F)(F)F)c1`, the Potency is reported as inconclusive [cytotoxic, single point]. For `CC(C)C(C(=O)OCC(=O)c1ccccc1)N1C(=O)C2C3C=CC(C3)C2C1=O` (stereo not drawn), the Potency was “inactive”. For `N#C/C(=C(/O)COC(=O)c1ccc(C#N)cc1)c1nc2ccccc2s1`, the Potency was “inactive”. For `O=C(Nc1ccc(Cl)cc1C(=O)NCc1cccnc1)c1ccc(Cl)cc1Cl`, the Potency was inconclusive [cytotoxic, single point]. In the case of `CCCN(CC1CC1)c1cc2c(c3c1ccn3C)C1CCC2C1` (stereo not drawn), the Potency is reported as inconclusive [cytotoxic, single point]. With `O=C(CSC1=NCCN1)NC1CCCCCC1` the Potency was “inactive”. For `CC(O)(c1ccccc1)c1nc(-c2cccc(F)c2)cs1` (stereo not drawn), the activity, negative = less viability was inconclusive: -50%. For `CCCNC(=O)c1cc2c(c(-c3cccc(-c4ccccc4F)c3)n1)[C@H](CCO)N(C(=O)CC1CC1)C2`, the Potency was inconclusive [cytotoxic, single point]. In the case of `O=C(C=Cc1ccccc1F)c1ccccc1`, the Potency is reported as inconclusive [cytotoxic, single point]. In the case of `COc1ccc2[nH]c(=O)c(CN(Cc3nnnn3Cc3ccco3)C3CCCCC3)cc2c1`, the Potency is reported as “inactive”. In the case of `COc1ccc(-c2csc(NC(=O)c3cc(C)on3)c2C#N)cc1OC`, the Potency is reported as inconclusive [cytotoxic, single point]. In the case of `CCN(CC)CCCN(C(=O)c1cccs1)c1nc(-c2ccc(OC)cc2)cs1`, the Potency is reported as inconclusive [cytotoxic, single point]. With `Cc1ccc2nc(SCC(=O)c3ccc(Cl)s3)[nH]c2c1` the Potency was “inactive”. In the case of `Cc1ccc(C(=O)/C=C/c2cn(CC(O)CN3CCOCC3)c3ccccc23)cc1` (stereo not drawn), the Potency is reported as inconclusive [cytotoxic, single point]. For `CCC(C)Sc1cccc(-c2nc3cnccn3c2NC2CCCCC2)c1` (stereo not drawn), the Potency was inconclusive [cytotoxic, single point]. For `COc1cc(OC)c2cc(C(=O)N/N=C/c3cccc(OC)c3O)[nH]c2c1`, the Potency was inconclusive [cytotoxic, partial curve]. In the case of `CCOC(=O)C1Cn2c(nc3c(c2=O)C(C)(C)Cc2ccccc2-3)S1` (stereo not drawn), the Potency is reported as “inactive”. In the case of `Cc1ccc2[nH]c(-c3cccc(F)c3)cc(=O)c2c1`, the Potency is reported as active: 1.64 µM. In the case of `CCc1ccc(-c2csc3[n+]2CCN3C(C)=O)cc1`, the Potency is reported as “inactive”. With `COc1ccc(Nc2ncc(C(=O)O)c3ccccc23)cc1` the Potency was “inactive”. With `C=CCN(C)CC/C=C1\c2ccccc2CSc2ccccc21` the Potency was inconclusive [cytotoxic, single point]. With `CC1CCN(C(=O)C2CCCCN2S(=O)(=O)c2cccc([N+](=O)[O-])c2)CC1` (stereo not drawn) the Potency was “inactive”. With `COCCNc1nnc(SCC(=O)Nc2cc(-c3ccccc3)nn2-c2ccccc2)s1` the Potency was “inactive”. For `COc1ccc(C(=O)N2CCCC2(C)C(=O)O)cc1C(F)(F)F` (stereo not drawn), the Potency was “inactive”. For `O=C(O)c1ccc(COCC(F)(F)C(F)F)o1`, the Potency was “inactive”. In the case of `CCOc1cc(C(=O)Nc2ccc(N3CCOCC3)cc2)cc(Br)c1OC`, the Potency is reported as inconclusive [cytotoxic, partial curve]. In the case of `CCCc1ccc(C(O)c2ncc(-c3cccc(C)c3)[nH]2)cc1` (stereo not drawn), the Potency is reported as inconclusive [cytotoxic, single point]. With `Cc1nn(Cc2ccccc2)c(C)c1CNC(=O)CN=C1NS(=O)(=O)c2ccccc21` the Potency was “inactive”. With `COc1ccc(C(c2nnnn2Cc2ccccc2)N2CCN(C/C=C/c3ccccc3)CC2)cc1` (stereo not drawn) the Potency was inconclusive [cytotoxic, single point].
